Laboratory results taken from PubChem BioAssay AID1508623 (National Center for Advancing Translational Sciences (NCATS), 2021).
Out of some 48,000 compounds screened, about 450 (0.94%) were called active. Roughly 19% stayed inconclusive and do not appear here. Calls come from the whole dose curve; as a rule, active = well fitted inhibition curve with a large enough effect; inconclusive = small, poorly fitted or top-dose-only effect; inactive = no such curve, though single readings can be large or run the other way. The list shows a part of the results.

assay: Primary qHTS for Identification of Small Molecule Inhibitors of Huntingtin Promoter Activity; conditions: HEK293 HTT promoter firefly luciferase reporter (activity 0% = vehicle and -100% = no light), 24 h; series mostly up to 57.5 µM; activity change, negative = inhibition: at the top concentration; note: nearly all actives have a fitted effect of over 50% in size
Procedure, shortened: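 Firefly luciferase readout (Dual-Glo, 10 min RT) after 24 h, 37 °C compound exposure (final up to 57.5 uM) of HEK293 reporter cells cultured 24 h beforehand; PTC124 at 50 uM final as control inhibitor; activity scaled vehicle 0%, zero RLU -100%.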
Potency is the fitted concentration of half-maximal effect.

Row | SMILES | activity change, negative = inhibition | Potency
1 | CCOc1ccc(CC(=O)Nc2c(C(=O)c3ccc(Cl)cc3)oc3ccccc23)cc1OCC | inactive: 4.52% | –
2 | CCn1c(Oc2ccc(F)cc2F)nc2c1c(=O)n(C)c(=O)n2C | inactive: -15.1% | –
3 | CC1=C(C(=O)Nc2ccc(Cl)cc2)C(c2cccs2)n2nc(SCc3cccc(Cl)c3)nc2N1 (stereo unspecified) | inactive: -0.713% | –
4 | Cc1cccc(S(=O)(=O)c2cn(Cc3ccccc3)c3cc(N4CCC(C)CC4)c(F)cc3c2=O)c1 | inactive: -25.3% | –
5 | CCc1cc2c(cc3c(=O)n(CC(=O)NCc4cccc(Cl)c4)nc(CC)n32)s1 | inactive: 8.42% | –
6 | CCC1=Nc2cc(C(=O)NCCc3ccccc3)ccc2Sc2ccc(Cl)cc21 | inactive: -20.9% | –
7 | COc1ccc(Nc2cc(C(=O)NCCCN(C)Cc3ccccc3)c3ccccc3n2)cc1OC | inactive: -24.3% | –
8 | COc1ccc(-n2nc3cc(C)c(NC(=O)COc4cccc(C)c4)cc3n2)cc1 | inactive: 2.4% | –
9 | COc1cccc(OCc2nc3ccccc3n2Cc2ccccc2)c1 | inactive: 0.254% | –
10 | COc1ccc(NC(=O)c2sc3nc(C)c(C(=O)Nc4ccc(C)cc4C)c(-c4ccc(C)o4)c3c2N)cc1 | inactive: 6.59% | –
11 | Cc1ccc(Nc2nc(C)cc(C)n2)c(C(=O)O)c1 | inactive: -10.7% | –
12 | CC1(C)CC(=O)c2cc(-c3nc(-c4ccc(Cl)cc4)cs3)c(=O)n(-c3ccc(Cl)cc3)c2C1 | inactive: -17.9% | –
13 | C#CC(C)(CC)NC(=O)c1cnn2c(C(F)F)cc(-c3ccccc3OC)nc12 (stereo unspecified) | inactive: 3.75% | –
14 | Cc1cc(C)n(CCc2nc3c4ccccc4nc(N4CCN(c5ccccc5F)CC4)n3n2)n1 | inactive: -12.4% | –
15 | Cc1ccc(NC(=O)/C(C#N)=C/c2ccc(C)o2)cc1 | inactive: 92% | –
16 | CC(C)CCNC(=O)c1ccc2c(c1)NC(=O)C(CS(=O)(=O)Cc1cccc(Br)c1)N2 (stereo unspecified) | inactive: 6.54% | –
17 | Cc1ccc(Cn2ccnc2SCC(=O)NCc2ccc(F)cc2)cc1 | inactive: -23.9% | –
18 | COc1ccc(NC(=O)CSc2nc3ccccc3n2CC(=O)N(C)c2ccc(F)cc2)cc1 | inactive: -29.9% | –
19 | CN1C(=O)C2(SCC(=O)N2c2cccc(C(F)(F)F)c2)c2ccccc21 (stereo unspecified) | inactive: -31.3% | –
20 | CCOC(=O)C1CCC(CN(Cc2ccc(Cl)cc2)S(=O)(=O)c2ccc(Br)cc2)CC1 (stereo unspecified) | inactive: 13.7% | –
21 | CCOC(=O)C1CCN(CC(=O)N2CCCc3c2c(=O)oc2ccc(OCc4ccccc4)cc32)CC1 | inactive: -11.6% | –
22 | CC(=O)Oc1cccc(O)c1 | inactive: -1.74% | –
23 | CCCN1CCN(CCNC(=O)Nc2ccc(OC)c(OC)c2)CC1 | inactive: -4.94% | –
24 | CCOc1ccc(NC(=O)c2cn(C)c(=O)c3cc(OC)c(OC)cc23)cc1 | inactive: 33.1% | –

Row | SMILES | activity change, negative = inhibition | Potency
25 | CCS(=O)(=O)N1CC(=O)N(c2cccc(Cl)c2C)C(C)(C(=O)NC2CCCCC2)C1 (stereo unspecified) | inactive: -7.23% | –
26 | CCCN(c1ccccc1CC)S(=O)(=O)c1ccc2c(c1)CC(C)N2C(=O)C1CC1 (stereo unspecified) | – | active: 22.4 µM
27 | CCCc1c(OCCCCc2nn[nH]n2)ccc(C(C)=O)c1O | inactive: -0.42% | –
28 | COCCNC(=O)CCCN1C(=O)c2ccccc2Sc2ncccc21 | inactive: -7.05% | –
29 | Cc1ccc(NC(=O)c2oc3ccc(S(=O)(=O)N(C)C4CCCCC4)cc3c2C)cc1Cl | inactive: -11.5% | –
30 | O=S(=O)(c1cccc(F)c1)N1CCC(c2nc3ccccc3s2)CC1 | inactive: -15.8% | –
31 | CCCCN(CCCC)CC(O)Cn1cc(/C=C/C(=O)c2ccccc2)c2ccccc21 (stereo unspecified) | inactive: -27.1% | –
32 | COc1cccc2c1cc1c(=O)n(CC(=O)NC3CC3)nc(C)n12 | inactive: 2.5% | –
33 | O=c1c(=O)n(-c2cccc(Cl)c2)ccn1Cc1cccc(F)c1 | inactive: -22.6% | –
34 | CC(=O)N1CCc2cc(S(=O)(=O)NC(CC(C)C)C(=O)NCc3ccccc3)ccc21 (stereo unspecified) | inactive: -8.86% | –
35 | Cc1nnc(SCC(=O)Nc2ccc(Br)cc2)[nH]c1=O | inactive: -21% | –
36 | CCCCC(CC)CNC(=O)CCCn1c(=O)[nH]c2ccsc2c1=O (stereo unspecified) | inactive: -21% | –
37 | COc1ccc(C)cc1Nc1nc(-c2cccc(Cl)c2)c2c(n1)-c1ccccc1OC2 | inactive: -12.9% | –
38 | Cc1ccc(-c2nc(N3CCN(c4ccccc4Cl)CC3)c3ccccc3n2)cc1 | inactive: -6.77% | –
39 | CCOc1ccc(NC(=O)C(NC(=O)C2CCC(C)CC2)C(C)C)cc1 (stereo unspecified) | inactive: 0.232% | –
40 | CCOC(=O)c1cc(-c2ccccc2)n(CC(=O)N(C)c2ccc(OC)cc2)c1C | inactive: -20.2% | –
41 | COc1ccc(CNC(=O)CN(c2ccccc2)S(=O)(=O)N(C)C)cc1 | inactive: 2.67% | –
42 | CCOC(=O)c1cc2c(=O)n3ccccc3nc2n(CCCOC)c1=NC(=O)C(C)Oc1ccccc1 (stereo unspecified) | inactive: -16.4% | –
43 | CN(C)S(=O)(=O)c1ccc(C(=O)N2CC(=O)Nc3ccc(Br)cc3C2c2ccc(F)cc2)cc1 (stereo unspecified) | inactive: -3.57% | –
44 | CC1CCN(C(=O)Cn2c(=O)oc3cc(S(=O)(=O)N4CCCCC4)ccc32)CC1 | inactive: -17.1% | –
45 | CCOc1cc(CNc2ccc(O)cc2)ccc1OCc1ccc(Cl)cc1 | inactive: 10.4% | –
46 | CCOc1ccc(CC(=O)NCCc2sc3nc(-c4ccc(OC)cc4)nn3c2C)cc1 | inactive: -8.46% | –
47 | Cc1cccc(-n2c(=O)c3c4c(sc3n3cnnc23)CCCC4)c1 | inactive: -2.13% | –
48 | CCN1CCN(c2c(S(=O)(=O)c3ccc(C)c(C)c3)cnc3cc(OC)c(OC)cc23)CC1 | inactive: -27% | –

Row | SMILES | activity change, negative = inhibition | Potency
49 | Cc1cc(=O)n(Cc2cccc(Cl)c2)c2c1c(C)nn2-c1ccccc1 | inactive: -13.3% | –
50 | Cc1cc(C)cc(NC2=CC(c3cccc(F)c3)N(c3cc(C)cc(C)c3)C2=O)c1 (stereo unspecified) | inactive: 12.7% | –
51 | CCN(CC)C(=O)c1sc2c(c1C)c(=O)n(-c1ccccc1)c(=O)n2CC(=O)Nc1ccc(C)cc1C | inactive: 0% | –
52 | CCCCSc1ncnc2c1c(-c1ccccc1)cn2-c1cccc(F)c1 | inactive: -13.9% | –
53 | CCN(CC)S(=O)(=O)c1nnc(NC(=O)COc2ccc(Cl)cc2)s1 | inactive: -17.5% | –
54 | CCOC(=O)Cn1cnc2onc(-c3ccc(F)cc3)c2c1=O | inactive: -20.5% | –
55 | COc1ccc(C(CNC(=O)COc2ccc(Cl)c(C)c2)N2CCOCC2)cc1 (stereo unspecified) | inactive: -7.72% | –
56 | Cc1cc(C)cc(NS(=O)(=O)c2ccc3c(c2)NC(=O)C(C)S3)c1 (stereo unspecified) | inactive: -26.2% | –
57 | Cc1c(C(=O)NCc2ccccc2Br)oc2c1-c1[nH]ncc1CC2 | inactive: 23.8% | –
58 | CCN1CCN(c2c(S(=O)(=O)c3ccc(OC)cc3)cnc3cc(OC)c(OC)cc23)CC1 | inactive: -18.4% | –
59 | CCc1ccc(S(=O)(=O)c2nnn3c2nc(NC2CCCCCC2)c2sccc23)cc1 | inactive: -8.58% | –
60 | CCOC(=O)C(CC)Sc1ccc2nnc(CCNS(=O)(=O)c3ccc(C)cc3)n2n1 (stereo unspecified) | inactive: -5.54% | –
61 | CCOCCCNC(=O)C1CCC(CNS(=O)(=O)c2ccc(NC(C)=O)cc2)CC1 (stereo unspecified) | inactive: 1.79% | –
62 | Cc1ccc(C)c(CN2C(=O)c3ccccc3S(=O)c3ccc(C(=O)NCc4ccccc4)cc32)c1 (stereo unspecified) | inactive: -20.9% | –
63 | COc1ccccc1Cc1nc2ccccc2[nH]c1=O | inactive: 24.9% | –
64 | CCn1cc(C(=O)N2CCN(c3cccc(Cl)c3)CC2)c(=O)c2cc(S(=O)(=O)N3CCCCC3)ccc21 | inactive: -26.6% [at 11.5 µM] | –
65 | COc1ccc(OC)c(NC(=O)N2CCN(S(=O)(=O)c3ccc4c(ccn4C)c3)CC2)c1 | inactive: -23.5% | –
66 | COc1ccc(C(CNC(=O)c2oc3ccc(C)cc3c2C)N2CCOCC2)cc1 (stereo unspecified) | inactive: -5.19% | –
67 | COc1cc(OC)cc(C(=O)Nc2ccc3nc(N4CCCCC4)cc(C)c3c2)c1 | inactive: -28.5% | –
68 | CC(C)Cn1c(=O)c2ccccc2n2c(CCC(=O)N3CCN(c4ccccc4F)CC3)nnc12 | inactive: -1.78% | –
69 | Cc1ccc2nc(-c3ccc(O)cc3)c(Nc3ccc4c(c3)OCCO4)n2c1 | inactive: 1.41% | –
70 | CCCSCCCNC(=O)C1CCN(c2nn3cc(-c4ccc(F)cc4)nc3s2)CC1 | inactive: -14.3% | –
71 | CCC1CCCCN1CCCNC(=O)c1cc2c(Cl)nc3ccccc3c2s1 (stereo unspecified) | inactive: -20% | –
72 | Cc1ccc(C)n1-c1nnc(N2CCCC(C(=O)Nc3ccc(C(C)C)cc3)C2)s1 (stereo unspecified) | inactive: 16.5% | –

Row | SMILES | activity change, negative = inhibition | Potency
73 | COC(=O)c1ccccc1NC(=O)Cn1c(=O)n(Cc2ccc(C(=O)NCc3ccc4c(c3)OCO4)cc2)c(=O)c2ccccc21 | inactive: -5.96% | –
74 | CCOC(=O)c1c(C)oc2ncnc(Nc3ccc(OCC)cc3)c12 | inactive: 2.05% | –
75 | COc1cccc(C(=O)c2sc3nc(-c4ccccc4)cc(C(F)(F)F)c3c2N)c1 | inactive: -24.4% | –
76 | O=C(CN1C(=O)CCc2cc(S(=O)(=O)N3CCOCC3)ccc21)NCc1ccc(F)cc1 | inactive: -31.8% | –
77 | Cc1ccc(CNC(=O)c2ccc3c(c2)nc(C)n3-c2cc(C)cc(C)c2)cc1 | inactive: 0.579% | –
78 | O=C(COc1ccccc1F)Nc1ccc(-c2nc3ccccc3s2)cc1 | inactive: 27.7% | –
79 | Cc1ccc(N(CC(=O)NCCc2ccccc2)S(=O)(=O)N(C)C)cc1 | inactive: -1.76% | –
80 | COc1cc(C)ccc1OCCSc1nc2ccc(NC(=O)c3ccc(F)cc3)cc2s1 | inactive: -4.24% | –
81 | CCCCOc1ccc(C(=O)Nc2ccc(-c3nc4ccccc4s3)cc2C)cc1 | inactive: 41.1% | –
82 | Cn1ccc2cc(S(=O)(=O)N3CCC(C(=O)NCCc4ccccc4)CC3)ccc21 | inactive: -11.8% | –
83 | N#Cc1ccccc1NC(=O)Cn1cnc2onc(-c3cccc(F)c3)c2c1=O | inactive: -1.01% | –
84 | COc1ccc2oc(-c3ccc(C)c(NC(=O)c4cccnc4)c3)nc2c1 | inactive: -7.75% | –
85 | COc1cc(OC)c(NC(=O)CSc2nccn2C)cc1Cl | inactive: -26.4% | –
86 | CC1CCN(c2oc(-c3cccs3)nc2S(=O)(=O)c2ccc(Cl)cc2)CC1 | inactive: -10.5% [at 11.5 µM] | –
87 | Cc1ccc(CNC(=O)c2ccc(-n3c(C)cc4c3CCCC4)cc2)cc1 | inactive: -3.74% | –
88 | Cc1ccc(OCC(=O)Nc2ccc3nc(SCC(=O)N4CCCC4)sc3c2)cc1 | inactive: 18.6% | –
89 | O=C(CSc1nc2cc(C(=O)NC3CCCC3)ccc2c(=O)n1CC1CCCO1)c1ccc(F)cc1 (stereo unspecified) | inactive: -6.74% | –
90 | Cc1ccc(C)c(S(=O)(=O)c2cn(Cc3ccccc3)c3cc(F)c(F)cc3c2=O)c1 | inactive: -28.1% | –
91 | CCOC(=O)c1c(SCC(=O)Nc2nc3ccc(C)cc3s2)nc(=O)[nH]c1C | inactive: -2.14% | –
92 | Cc1cc(C)c2sc(N(Cc3cccnc3)C(=O)CCS(=O)(=O)c3ccccc3)nc2c1 | inactive: 0.91% | –
93 | Cc1cccc(CSc2cn(CC(=O)N3CCCCC3)c3ccccc23)c1 | inactive: -7.2% | –
94 | O=C(Cn1cc(SCc2cccc(F)c2)c2ccccc21)N1CCOCC1 | inactive: 22.8% | –
95 | CN(C)C(=N)N=C(N)N | inactive | –
96 | O=C(c1cc(-c2ccc(Br)cc2)n[nH]1)N1CCN(S(=O)(=O)c2ccc(Br)cc2)CC1 | inactive: -21.5% | –
